PMC9521807 (PLoS Pathogens, 2022)

Biological target: T1, OsRMC (Oryza sativa, UniProt Q5I7E9)
T1 sequence (Q5I7E9 24-258): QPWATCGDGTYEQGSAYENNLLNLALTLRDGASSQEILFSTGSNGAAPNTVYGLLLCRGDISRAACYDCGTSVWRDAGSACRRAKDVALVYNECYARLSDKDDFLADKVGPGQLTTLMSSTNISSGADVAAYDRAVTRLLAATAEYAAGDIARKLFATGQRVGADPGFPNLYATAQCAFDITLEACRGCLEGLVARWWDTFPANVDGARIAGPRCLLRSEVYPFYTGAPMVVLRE
Assay: mannose-agarose pull-down, anti-Flag immunoblot
Conditions: mannose immobilised on agarose

With `OC[C@H]1OC(O)[C@@H](O)[C@@H](O)[C@@H]1O` (stereo partly shown) [mannose] the “mannose-agarose pull-down, anti-Flag immunoblot” value was “Incubation of OsRMC with mannose-agarose resulted in recovery of OsRMC in the bound fraction”.
